Our source for the self-cleavage values is the RNAGym collection of RNA variant scans (doi:10.7554/elife.90254).

The source gives no read counts; variants with many changes may rest on few reads.

B1: LINE1-full (parent)
chain: UACGUAGGUGGUUUUCCCCUGAUAGUGCUAAGGGGGCCUGGAAGUUUGGACUGGGCAGAGCUCAACACAGCGUGGCAAAGUGGCUGUGGCUAGACUGCCUCUCUGGAUUCCUCGUCACUCAGCAGGGCAUCUCUGAGAGAAAUGCC

The variants in the data set derive from B1. The experiment in a line: self-cleavage, relative activity (ratio to wild type); higher = more cleavage; in vitro, sequencing; the parent is a self-cleaving ribozyme.
As for UACGUAGGUGGUUCUCCCCUGAUAGUGCUAAGGGGGCCUGGAAGUUUGGACUGGGCAGAGCUCAGCACAGCGUGGCAAAGUGGCUGUGGCUAGACUGCCUCUCUGGAUUCCUCGUCACUCAGCAGGGCAUCUCUGAGAGAAACGCC [U14C A65G U143C], the self-cleavage amounted to 0.13. For the variant UACGUAGGUGGUUCUCCCCUGAUAGUGCUAAGGGGGCCUGGAAGUUUGGACUGGGCAGAGCUCAUCACAGCGUGGCAAAGUGGCUGUGGCUAGACUGCCUCUCUGGAUUCCUCGUCACUCAGCAGGGCAUCUCUGAGGGAAAUGCC [U14C A65U A138G], the self-cleavage turned out to be 0.24.

For UACGUAGGUGGUUCUCCCCUGAUAGUGCUAAGGGGGCCUGGAAGUUUGGACUGGGCAGAGCUCAGCACAGCGUGGCAAAGUGGCUGUGGCUAGACUGCCUCUCUGGAUUCCUCGUCACUCAGCAGGGCAUCCCUGAGAGAAAUGCC [U14C A65G U132C], the self-cleavage amounted to 0.19.

Take UACGUAGGUGGUUCUCCCCUGAUAGUGCUAAGGGGGCCUGGAAGUUUGGACUGGGCAGAGCUCAACACAGCGUGGCGAAGUGGCUGUGGCUAGACUGCCUCUCUGGAUUCCUCGUCACUCAGCGGGGCAUCUCUGAGAGAAAUGCC [U14C A77G A124G]: the self-cleavage was determined as 0.84.

For the variant UACGUAGGUGGUUCUCCCCUGAUAGUGCUAAGGGGGCCUGGAAGUUUGGACUGGGCAGAGCUCUACACAGCGUGGCAAAGUGGCUGUGGCUAGACUGCCUCUCUGGAUUCCUCGUCACCCAGCUGGGCAUCUCUGAGAGAAAUGCC [U14C A64U U119C A124U], the self-cleavage stood at 0.46. Turning to UACGUAGGUGGUUCUCCCCUGAUAGUGCUAAGGGGGCCUGGAAGUUUGGACUGGGCAGGGCUCAACACAGCGUGGCAAAGUGGCUGUGGCUAGACUGCCUCUCUGGGUUCCUCGUUACUCAGCAGGGCAUCUCUGAGAGAAAUGCC [U14C A59G A107G C116U], the self-cleavage is 0. UACGUAGGUGGUUCUCCCCUGAUAGUGCUAAGGGGGCCUGGAAGUUUGGACUGGGCAGGGCUCAACACAGCGUGGCAAAGUGGCUGUGGCUAGACUGCCUCUCUGGAUUCCUCGUCACUCAGCAGGGCAUCCCUGAGAGAAAUGCC [U14C A59G U132C]: the self-cleavage stood at 0.22. Under UACGUAGGUGGUUCUCCCCUGAUAGUGCUAAGGGGGCCUGGAAGUUUGGACUGGGCAGAGCUCAACACAGCGUGGCUAAGUGGCUGUUGCUAGACUGCCUCUUUGGAUUCCUCGUCACUCAGCGGGGCAUCUCUGAGAGGAAUGCC [U14C A77U G88U C103U A124G A140G] stands 0.15; under UACGUAGGUGGUUCUCCCCUGAUAGUGCUAAGGGGGCCUGGAAGUUUGGACUGGGCAGAGCUCUACACAGCGUGGCAAAGUGGCUGUGGCUAGACUGCCUCUCUGGAUUCCUCGUCACCCAGCAGGGCAUCUUUGAGAGAAAAGCC [U14C A64U U119C C133U U143A], 0.74. With UACGUAGGUGGUUCUCCCCUGAUAGUGCUAAGGGGGCCUGGAAGUUUGGACUGGGCAGAGCUCGCCACAGCGUGGCAAAGUGGCCGUGGCUAGACUGCCUCUCUGGAUUCCUCGACACUCAGCAGGGCAUCUCUGAGAGAAAUGCC [U14C A64G A65C U85C U115A], the self-cleavage worked out at 0. As for UACGUAGGUGGUUCUCCCCUGAUAGUGCUAAGGGGGCCUGGAAGUUUGGACUGGGCAGAGCUCAGCACAGCGUGGCGAAGUGGCUGUGGCUAGACUGCCUCUCUGGAUUCCUCGUCACUUAGCAGGGCAUCUCUGAGAGAAAUGCC [U14C A65G A77G C120U], the self-cleavage was determined as 0.24.

On to UACGUAGGUGGUUCUCCCCUGAUAGUGCUAAGGGGGCCUGGAAGUUUGGACUGGGCAGUGCUCGACACAGCGUGGCAAAGUGGCUGUGGCUGGACUGCCUCUCUGGAUUCCUCGUCACACAGCAGGGCAUCUCUGUGAGAAAUGCC [U14C A59U A64G A92G U119A A136U], for which the self-cleavage came out at 0. The result for UACGUAGGUGGUUCUCCCCUGAUAGUGCUAAGGGGGCCUGGAAGUUUGGACUGGGCAGAGCUCAACACGGCGCGGCAAAGUGGCUGUGGCUAGACUGCCUCUCUGGAUUCCUCGUCACUCAGCAGGGCAUCUCUGAGAGAAAUGCC [U14C A69G U73C] reads 0; that for UACGUAGGUGGUUCUCCCCUGAUAGUGCUAAGGGGGCCUGGAAGUUUGGACUGGGCAGAGCUCGACACAGCGUGGCAAAGUGGCUGUGGCUAGACUGCCUCUCUGGAUCCCUCGUCACUCAGCAGGGCAUCUCUGAGAGAAAUGCC [U14C A64G U109C], 0.31. Take UACGUAGGUGGUUCUCCCCUGAUAGUGCUAAGGGGGCCUGGAAGUUUGGACUGGGCAGGGCUCAACACAGCGUGGCAAAGUGGCUGUGGCUAGACUGCCUCUCUGGAUUCCUCGUCACUCAGCUGGGCAUCUCUGAGAGAAAUGCC [U14C A59G A124U]: the self-cleavage worked out at 0.18. Under UACGUAGGUGGUUCUCCCCUGAUAGUGCUAAGGGGGCCUGGAAGUUUGGACUGGGCAGAGCUCGACACAGCGUGGCAAAGUGGCUGUGGCUAGACUGCCCCUCUGGAUUCCUCGUCACUCAGCAGGGCAUCUCUGAGAGAAAUGCC [U14C A64G U100C] stands 0.25; under UACGUAGGUGGUUCUCCCCUGAUAGUGCUAAGGGGGCCUGGAAGUUUGGACUGGGCAGAGCUCAACACAGCGUGGCAGAGUGGCUGAGGCUAGACUGCCUCUCUGGAUUCCUCGUCACUCAGCAGGGCAUCUCUGUGAGAAAUGCC [U14C A78G U87A A136U], 0.12. Under UACGUAGGUGGUUCUCCCCUGAUAGUGCUAAGGGGGCCUGGAAGUUUGGACUGGGCAGAGCUCAACUCAGCGUGGCAAAGUGGCUGUGGCUAGACUGCCUCUCCGGAUUCCUCGUCACUCAGCAGGGCAUCUCUGAGGGAAAUGCC [U14C A67U U104C A138G] stands 0.28; under UACGUAGGUGGUUCUCCCCUGAUAGUGCUAAGGGGGCCUGGAAGUUUGGACUGGGCAGGGCUCAACACAGCGUGGCAAAGUGGCUGUGGCUAGACUGCCUCUCUGGUUUCCUCGUCACUCAGCAGGGCAUCUCUGAGAGAAAUGCC [U14C A59G A107U], 0.29; under UACGUAGGUGGUUCUCCCCUGAUAGUGCUAAGGGGGCCUGGAAGUUUGGACUGGGCAGAGCUCAACACAGCGUGGCUAAGUGGCUGUGGCUAGACUGCCUCUCAGGAUUCCUCGUCACUCAGCAGGGCAUCUCUGAGAGAAAUGCC [U14C A77U U104A], 2.25. Take UACGUAGGUGGUUCUCCCCUGAUAGUGCUAAGGGGGCCUGGAAGUUUGGACUGGGCAGAGCUCAACACUGCGUGGCAGAGUGGCUGUGGCUAGACUGCCUCUCUGGAUUCCUCGUCACUCAGCAGGGCAUCUCUGAGAGAAAUGCC [U14C A69U A78G]: the self-cleavage came to 0. Under UACGUAGGUGGUUCUCCCCUGAUAGUGCUAAGGGGGCCUGGAAGUUUGGACUGGGCAGAGCUCGACACAGCGUGGCAAAGUGGCUGUAGCUAGACUGCCUCUCAGGAUUCCUCGUCACUCAGCAGGGCAUCUCUGAGAGAAGUGCC [U14C A64G G88A U104A A142G] stands 0.09. As to UACGUAGGUGGUUCUCCCCUGAUAGUGCUAAGGGGGCCUGGAAGUUUGGACUGGGCAGAGCUCAACGCAGCGUGGCAAAGUGGCUGUGGCUAGACUGCCUCUCAGGAUUCCUCGUCACUCAGCAGGGCAUCUCUGAGAGAAAUGCC [U14C A67G U104A], the self-cleavage came to 0.12. For UACGUAGGUGGUUCUCCCCUGAUAGUGCUAAGGGGGCCUGGAAGUUUGGACUGGGCAGAGCUCAGCACAGCGUGGCAAAGUGGCUGUGGCUAGACUGCCCCUCUGGAUUCCUCGUCACUCAGCAGGGCAUCUCUGAGAGAAAUGCC [U14C A65G U100C], the self-cleavage was determined as 0.

Turning to UACGUAGGUGGUUCUCCCCUGAUAGUGCUAAGGGGGCCUGGAAGUUUGGACUGGGCAGAGCUCAACACUGCGUGGCAAAGUGGCGGUGGCUAGACUGCCUCUCCGGAUUCCUCGUCACUCAGCAGGGCAUCUCUGAGAGAAAUGCC [U14C A69U U85G U104C], the self-cleavage amounted to 0.69. In the case of UACGUAGGUGGUUCUCCCCUGAUAGUGCUAAGGGGGCCUGGAAGUUUGGACUGGGCAGAGCUCAACACGGCGUGGCAAAGUGGCUGUGGCUAGACUGCCUCUCUGGAUUCCUCGUCACUCAGCAGGGCAUCUCUGAGAGAAGUGCC [U14C A69G A142G], the self-cleavage was found to be 0.24. The result for UACGUAGGUGGUUCUCCCCUGAUAGUGCUAAGGGGGCCUGGAAGUUUGGACUGGGCAGGGCUCAACACAGCGUGGCAAAGUGGCUGUGGCUAGACUGCCUCUCUGGAUUCCUCGUCACUCAUCAGGGCAUCUCUGAGAGAAAUGCC [U14C A59G G122U] reads 0; that for UACGUAGGUGGUUCUCCCCUGAUAGUGCUAAGGGGGCCUGGAAGUUUGGACUGGGCAGAGCUCAACACGGCGUGGCAAAGUGGCUGUGGCUAGACUGCCUCUCUGGAUUCCUCGUCACUCAGCUGGGCAUCUCUGAGAGAAAUGCC [U14C A69G A124U], 0.51. As to UACGUAGGUGGUUCUCCCCUGAUAGUGCUAAGGGGGCCUGGAAGUUUGGACUGGGCAGAGCUCGACACAGCGUGGCAAAGUGGCUGUGGCUAGACAGCCUCUCUGGAUUCCUCGUCACUCAGCAGGGCAUCUCUGAGAGAAAUGCC [U14C A64G U96A], the self-cleavage was 0.07. Regarding UACGUAGGUGGUUCUCCCCUGAUAGUGCUAAGGGGGCCUGGAAGUUUGGACUGGGCAGAGCUCAACACAGCGUGGCGAAGUGGCUGUGGCUAGACUGCCUCUCUGGGUUCCUCGUCACUCAGCAGGGCAUCCCUGAGAGAAAUGCC [U14C A77G A107G U132C], the self-cleavage was found to be 1.23. Under UACGUAGGUGGUUCUCCCCUGAUAGUGCUAAGGGGGCCUGGAAGUUUGGACUGGGCAGGGCUCAACACAGCGUGGCAAAGUGGCUGUGGCUAGACUGCCUCUCUGGAUUCCUCGUCACUCAGCGGGGCAUCUCUGAGAGAAAAGCC [U14C A59G A124G U143A] stands 0.31. Under UACGUAGGUGGUUCUCCCCUGAUAGUGCUAAGGGGGCCUGGAAGUUUGGACUGGGCAGAGCUCAACUCAGCGUGGCAAAGUGGCUGUGGCUAGACUGCCUCUCUGGAUUCCCCGUCACUCAGCAGGGCAUCCCUGAGAGAAAUGCC [U14C A67U U112C U132C] stands 0.25; under UACGUAGGUGGUUCUCCCCUGAUAGUGCUAAGGGGGCCUGGAAGUUUGGACUGGGCAGAGCUCAACACGGCGUGGCAAAGUGGCUGUGGCUAGACUGCCCCUCUGGAUUCCUCGUCACUCAGCAGGGCAUCUCUGAGAGAAAUGCC [U14C A69G U100C], 0.

In the case of UACGUAGGUGGUUCUCCCCUGAUAGUGCUAAGGGGGCCUGGAAGUUUGGACUGGGCAGAGCUCAACACGGCGUGGCAAAGUGGCUGUGGCUAGACUGCCUCUCUGGAUUCCUCGUCACUCUGCAGGGCAUCUCUGAGAGAAAUGCC [U14C A69G A121U], the self-cleavage was found to be 0.99. On to UACGUAGGUGGUUCUCCCCUGAUAGUGCUAAGGGGGCCUGGAAGUUUGGACUGGGCAGAGCUCAACGCAGCGUGGCAAAGUGGCUGUGGCUAGACUGCCUCUCUGGAUUCCUCGUCACUCGGCAGGGCAUCCCUGAGAGAAAUGCC [U14C A67G A121G U132C], for which the self-cleavage is 1.15. With UACGUAGGUGGUUCUCCCCUGAUAGUGCUAAGGGGGCCUGGAAGUUUGGACUGGGCAGAGCUCUACACAGCGUGGCAAAGUGGCUGUGGCUAGACUGCCACUCUGGAUUCCUCGUCACUCAGCAGGGCAUCUCUGAGAGAAAUGCC [U14C A64U U100A], the self-cleavage was 0.35.

As to UACGUAGGUGGUUCUCCCCUGAUAGUGCUAAGGGGGCCUGGAAGUUUGGACUGGGCAGAGCUCAACUCAGCGUGGCAAAGUGGCUGUGGCUAGACUGCCUCUCAGGUUUCCUCGUCACUCAGCAGGGCAUCUCUGAGAGAAAUGCC [U14C A67U U104A A107U], the self-cleavage stood at 0.14. As to UACGUAGGUGGUUCUCCCCUGAUAGUGCUAAGGGGGCCUGGAAGUUUGGACUGGGCAGAGCUCAACACUGCGUGGCAGAGUGGCUGUGGCUAGACUGCCUCUCUGGACUCCUCGUCACUCAGCAGGGCAUCUCUGAGAGAAAUGCC [U14C A69U A78G U108C], the self-cleavage came to 0. UACGUAGGUGGUUCUCCCCUGAUAGUGCUAAGGGGGCCUGGAAGUUUGGACUGGGCAGAGCUCAACACUGCGUGGCAAAGAGGCUGUGGCUAGACUGCCUCUCUGGACUCCUCGUCACUCAGCAGGGCAUCUCUGAGAGAAAUGCC [U14C A69U U81A U108C]: the self-cleavage worked out at 0.21.
